# Values joined by “and” are separate entries in the source; they are usually repeats but may differ in a detail not shown here. Equal entries are not always repeated. The shares of active, inactive and inconclusive entries below differ from those in the screen. For part of these data: Potencies of inconclusive entries are doubtful fits and often do not repeat. Active and inactive are the calls of the source. Unless noted, calls follow the shape of the dose curve; as a rule, active = well fitted curve in the direction sought with a large enough effect in the repeat runs; inconclusive = weak or mixed curves; inactive = no such curve, though single readings can be large; an effect the other way counts as inactive or inconclusive.
# Columns and labels:
# [1] = qHTS assay to identify small molecule agonists of the TGF-beta/Smad signaling pathway (AID 1346859; active = well fitted activation curve with a large enough effect in the signal ratio in the repeat runs, not every such curve was filed as active; inconclusive = weak or mixed curves; the % refers to the signal ratio; also: potency is read from the fitted curve at half-maximal effect; as to activation: % is scaled to controls: 0 for no effect and ±100 for the full control effect); conditions: SBE-bla HEK293T, TGF-beta/Smad beta-lactamase reporter, 5 h; activation: at 76.8 µM (top of the series) unless noted
# Method in brief: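 SBE-bla HEK 293T, 4,000 cells/well, plated o/n; cpd in DMSO, 5 hr, 37 C/5% CO2; B/G FRET substrate 2 hr RT; ex 405, em 460/530 nm.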
# [2] = qHTS assay to identify small molecule antagonists of the TGF-beta/Smad signaling pathway (AID 1346924; active = well fitted inhibition curve with a large enough effect in the signal ratio in the repeat runs, not every such curve was filed as active; inconclusive = weak or mixed curves; the % refers to the signal ratio); conditions: SBE-bla HEK293T, TGF-beta/Smad reporter, beta-lactamase ratio; activity, negative = inhibition: at 76.8 µM (top of the series) unless noted
# Method in brief: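 SBE-bla HEK 293T cells were plated overnight, then received compound in DMSO plus TGF-beta1 (added as a 0.25 ng/mL solution) and were incubated 5 h at 37 C. Beta-lactamase reporter activity was read after 2 h at room temperature with LiveBLAzer B/G FRET substrate (ex 405, em 460/530 nm).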
# [3] = Human pregnane X receptor (PXR) small molecule agonists, qHTS cell viability counter screen (AID 1346977); also: potency is read from the fitted curve at half-maximal effect; nearly all actives have a fitted effect of over 50% in size
# Method in brief: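 PXR-Luc HepG2, 2,000 cells/well, 5% charcoal-stripped FBS; 5hr settle; cpd 24hr, 37C/5% CO2; CellTiter-Fluor at 23hr, read 1hr later (fluorescence).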
# [4] = Caspase-3/7 induction in CHO-K1 cells by small molecules, qHTS cell viability counter screen (AID 1346979); also: potency is read from the fitted curve at half-maximal effect; nearly all actives have a fitted effect of over 35% in size
# Method in brief: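 Cells (CHO-K1, wild type) are plated at 1,500 per well and incubated 5hr. Test compounds in DMSO are then pinned in, followed by 16hr at 37C and 5% CO2. Viability is read by CellTiter-Fluor fluorescence after 1hr.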
# [5] = biological target: Cytochrome P450 2D6 (Homo sapiens) (UniProt P10635); test: Cytochrome P450 Family 2 Subfamily D Member 6 (CYP2D6) small molecule antagonists: luciferase reporter qHTS assay (AID 1671196); also: potency is read from the fitted curve at half-maximal effect; nearly all actives have a fitted effect of over 50% in size
# Method in brief: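 Luminescence (RLU), read 20 min after detection reagent, indicated CYP2D6 conversion of proluciferin to luciferin during a 1 h NADPH-dependent reaction at room temperature.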
# [6] = Caspase-3/7 induction in HepG2 cells by small molecules, qHTS cell viability counter screen (AID 1346981); also: potency is read from the fitted curve at half-maximal effect; nearly all actives have a fitted effect of over 30% in size
# Method in brief: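 Multiplexed with the caspase-3/7 assay: HepG2 cells, 16 hr compound treatment, CellTiter-Fluor viability detection by fluorescence.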
# [7] = biological target: Nuclear receptor subfamily 1 group I member 2 (Homo sapiens) (UniProt O75469); test: Human pregnane X receptor (PXR) small molecule agonists, qHTS assay (AID 1346982); also: potency is read from the fitted curve at half-maximal effect; nearly all actives have a fitted effect of over 35% in size
# Method in brief: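 We seeded PXR-Luc HepG2 cells in assay medium containing 5% charcoal-stripped FBS, added compounds 5 hr later, incubated 24 hr, and read luminescence with ONE-Glo reagent.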
# [8] = biological target: Nuclear receptor subfamily 1 group I member 2 (Rattus norvegicus) (UniProt Q9R1A7); test: Rat pregnane X receptor (rPXR) activation by small molecules, qHTS assay (AID 1346983); conditions: rPXR luciferase reporter cells, One-Glo luminescence, 24 h; max activation: hits give high values; also: potency is read from the fitted curve at half-maximal effect; nearly all actives have a fitted effect of over 20% in size
# Method in brief: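 Luminescent readout (One-Glo luciferase, 30 min room temperature) followed 24 hr compound treatment at 37 C of rPXR cells plated 2,000 per well and preincubated 5hr; qHTS format with compounds delivered in DMSO.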
# [9] = biological target: Nuclear receptor subfamily 1 group I member 2 (Homo sapiens) (UniProt O75469); test: Human pregnane X receptor (PXR) activation by small molecules, qHTS assay (AID 1346985); also: potency is read from the fitted curve at half-maximal effect; nearly all actives have a fitted effect of over 40% in size
# Method in brief: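 DPX-2 cells (HepG2 co-transfected with a PXR response element and a CYP3A4-promoter luciferase construct) were seeded at 2,000 per well, rested 5 hr at 37C, then exposed to DMSO-dissolved compounds for 24 hr. Activation was read as luciferase luminescence.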
# [10] = biological target: Acetylcholinesterase (Homo sapiens) (UniProt P22303); test: Acetylcholinesterase (AChE) small molecule antagonists: enzyme-based qHTS assay (AID 1347397; calls by dose curve; also: potency is read from the fitted curve at half-maximal effect; nearly all actives have a fitted effect of over 55% in size); conditions: Potency: AChE enzyme activity inhibition
# Method in brief: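 rhAChE 50 mU/mL (dispensed) + cpd or DMSO, 30 min RT; add DTNB/acetylthiocholine cocktail, 10 min RT; colorimetric thiocholine readout. qHTS, 1536-well format.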
# [11] = qHTS assay to identify small molecule agonists of the TGF-beta/Smad signaling pathway - cell viability counter screen (AID 1346829); also: top concentration of the series differs between compounds; % is scaled to controls: 0 for no effect and ±100 for the full control effect; nearly all actives have a fitted effect of over 45% in size
# Method in brief: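 CellTiter-Glo luminescence readout; SBE-bla HEK 293T cells, overnight plating, compound 5 hr at 37 C/5% CO2, then bla substrate 2 hr RT, then CellTiter-Glo 30 min RT.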
# [12] = Caspase-3/7 induction in CHO-K1 cells by small molecules, qHTS assay (AID 1346980); also: % is scaled to controls: 0 for no effect and ±100 for the full control effect; nearly all actives have a fitted effect of over 15% in size
# Method in brief: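 Luminescent Caspase-Glo 3/7 read (30min, room temperature) quantified apoptosis induction. Cells were wild-type CHO-K1, treated with compound for 17hr at 37 C and 5% CO2.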
# [13] = biological target: Acetylcholinesterase (Homo sapiens) (UniProt P22303); test: Acetylcholinesterase (AChE) small molecule antagonists: colormetric cell-based qHTS assay (AID 1347395; calls by dose curve; also: potency is read from the fitted curve at half-maximal effect; nearly all actives have a fitted effect of over 30% in size)
# Method in brief: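 Colorimetric read-out: DTNB detects thiocholine released when cellular AChE in SH-SY5Y cells hydrolyses acetylthiocholine. Cells attached overnight, received compound for 30 min at 37 C, then substrate mix for 90 min at 37 C.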
# [14] = biological target: Cytochrome P450 2C19 (Homo sapiens) (UniProt P33261); test: Cytochrome P450 Family 2 Subfamily C Member 19 (CYP2C19) small molecule antagonists: luciferase reporter qHTS assay (AID 1671197); also: potency is read from the fitted curve at half-maximal effect; nearly all actives have a fitted effect of over 65% in size
# Method in brief: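 Enzyme-substrate mix with proluciferin substrate (P450-Glo CYP2C19 system) preincubated with compounds 10 min at room temperature; NADPH regeneration solution added, 37C for 1 h; detection reagent stops reaction, luminescence read after 20 min. Ketoconazole positive control.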
# Tags tell the direction and shape of the fitted curve or compound fluorescence and quenching.
# Chain of UniProt P10635 (P10635 whole entry, looked up): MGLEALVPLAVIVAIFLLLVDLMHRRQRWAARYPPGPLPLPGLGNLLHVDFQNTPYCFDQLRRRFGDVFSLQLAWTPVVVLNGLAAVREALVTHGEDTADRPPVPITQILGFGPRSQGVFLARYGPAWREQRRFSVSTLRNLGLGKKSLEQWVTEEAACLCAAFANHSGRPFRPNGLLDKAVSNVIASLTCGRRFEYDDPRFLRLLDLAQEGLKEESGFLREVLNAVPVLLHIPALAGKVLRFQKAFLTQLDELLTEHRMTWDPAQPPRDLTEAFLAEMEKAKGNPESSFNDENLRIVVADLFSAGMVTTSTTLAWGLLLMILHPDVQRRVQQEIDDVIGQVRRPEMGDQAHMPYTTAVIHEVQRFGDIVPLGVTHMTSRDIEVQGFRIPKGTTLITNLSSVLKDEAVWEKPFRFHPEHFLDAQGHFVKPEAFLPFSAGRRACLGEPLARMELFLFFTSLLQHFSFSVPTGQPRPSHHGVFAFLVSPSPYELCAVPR
# Chain of UniProt P22303 (P22303 whole entry, looked up): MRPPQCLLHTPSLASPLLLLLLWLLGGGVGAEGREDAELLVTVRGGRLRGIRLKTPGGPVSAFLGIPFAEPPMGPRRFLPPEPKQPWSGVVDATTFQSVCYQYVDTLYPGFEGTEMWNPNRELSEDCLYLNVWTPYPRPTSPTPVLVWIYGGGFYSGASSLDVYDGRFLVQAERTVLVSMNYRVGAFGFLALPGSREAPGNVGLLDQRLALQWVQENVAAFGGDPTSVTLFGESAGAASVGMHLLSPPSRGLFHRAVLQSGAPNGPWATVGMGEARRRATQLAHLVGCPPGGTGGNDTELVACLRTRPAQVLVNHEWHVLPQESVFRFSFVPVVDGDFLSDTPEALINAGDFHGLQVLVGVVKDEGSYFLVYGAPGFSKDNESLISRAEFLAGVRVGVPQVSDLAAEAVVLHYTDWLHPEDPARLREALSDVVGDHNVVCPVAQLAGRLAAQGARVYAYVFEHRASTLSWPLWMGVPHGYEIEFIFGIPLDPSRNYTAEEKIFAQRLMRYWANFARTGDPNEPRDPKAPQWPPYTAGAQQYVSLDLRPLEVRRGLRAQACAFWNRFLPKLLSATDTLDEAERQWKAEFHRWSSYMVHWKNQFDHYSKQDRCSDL
# Chain of UniProt O75469 (O75469 whole entry, looked up): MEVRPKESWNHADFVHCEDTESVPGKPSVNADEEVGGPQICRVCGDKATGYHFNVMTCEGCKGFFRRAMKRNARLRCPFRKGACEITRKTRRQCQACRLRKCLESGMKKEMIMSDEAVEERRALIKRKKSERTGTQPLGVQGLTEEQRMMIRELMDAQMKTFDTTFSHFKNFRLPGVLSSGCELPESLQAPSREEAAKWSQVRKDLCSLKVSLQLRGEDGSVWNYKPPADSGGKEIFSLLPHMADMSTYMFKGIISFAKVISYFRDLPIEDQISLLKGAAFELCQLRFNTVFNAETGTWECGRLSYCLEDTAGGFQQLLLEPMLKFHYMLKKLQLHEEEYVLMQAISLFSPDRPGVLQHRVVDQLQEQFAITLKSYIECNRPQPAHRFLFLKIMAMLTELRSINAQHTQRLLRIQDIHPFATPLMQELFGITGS
# Chain of UniProt P33261 (P33261 whole entry, looked up): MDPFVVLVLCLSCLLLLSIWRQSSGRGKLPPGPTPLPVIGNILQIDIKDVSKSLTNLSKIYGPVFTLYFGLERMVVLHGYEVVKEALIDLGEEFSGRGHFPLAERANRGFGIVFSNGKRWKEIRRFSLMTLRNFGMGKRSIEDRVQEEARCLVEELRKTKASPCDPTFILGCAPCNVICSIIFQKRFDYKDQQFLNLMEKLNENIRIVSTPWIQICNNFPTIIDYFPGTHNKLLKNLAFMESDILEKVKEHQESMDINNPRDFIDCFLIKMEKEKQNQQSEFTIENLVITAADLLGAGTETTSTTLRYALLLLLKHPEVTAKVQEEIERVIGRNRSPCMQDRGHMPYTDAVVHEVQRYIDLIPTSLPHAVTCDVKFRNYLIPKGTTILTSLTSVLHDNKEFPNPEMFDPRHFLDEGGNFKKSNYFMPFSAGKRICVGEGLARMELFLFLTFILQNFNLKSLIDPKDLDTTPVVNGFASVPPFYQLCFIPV
# Chain of UniProt Q9R1A7 (Q9R1A7 whole entry, looked up): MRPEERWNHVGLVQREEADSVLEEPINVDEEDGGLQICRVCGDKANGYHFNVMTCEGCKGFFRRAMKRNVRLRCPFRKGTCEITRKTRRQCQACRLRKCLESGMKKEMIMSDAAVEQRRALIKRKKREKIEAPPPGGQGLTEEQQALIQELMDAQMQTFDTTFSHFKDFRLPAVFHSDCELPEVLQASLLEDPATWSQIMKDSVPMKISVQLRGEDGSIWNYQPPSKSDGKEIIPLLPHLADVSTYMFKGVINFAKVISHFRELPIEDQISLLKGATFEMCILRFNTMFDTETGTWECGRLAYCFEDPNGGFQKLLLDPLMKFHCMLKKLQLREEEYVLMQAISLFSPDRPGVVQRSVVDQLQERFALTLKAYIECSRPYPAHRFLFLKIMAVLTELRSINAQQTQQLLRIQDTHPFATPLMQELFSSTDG
compound,measurement,setting,value
CC(C)(C)C(O)(CCc1ccc(Cl)cc1)Cn1cncn1 (stereo not given),Potency,[1],"inconclusive: 43.6 µM [rising, partial curve]"
same,"activity, negative = inhibition",[2],inconclusive: -19.8%
same,Potency,[3],"inconclusive: 79.4 µM [cytotoxic, partial curve, poor fit]"
same,Potency,[4],"inconclusive: 69.4 µM [cytotoxic, single point] and inconclusive: 68.6 µM [cytotoxic, single point]"
same,Potency,[5],active: 28.6 µM and active: 35.6 µM
CCC1(c2ccc(N)cc2)CCC(=O)NC1=O (stereo not given),Potency,[1],inactive
same,"activity, negative = inhibition",[2],inconclusive: -2.04% [at 35.3 µM]
same,Potency,[6],"inconclusive: 27.3 µM [cytotoxic, single point]"
same,Potency,[7],"inconclusive: 54.5 µM [activator, partial curve, poor fit]"
CCOC(=O)CP(=O)(OCC)OCC,Potency,[1],inactive
Clc1ccc(CCC(Cn2ccnc2)Sc2c(Cl)cccc2Cl)cc1 (stereo not given),Potency,[1],"inconclusive: 21.3 µM [falling, partial curve, poor fit]"
same,"activity, negative = inhibition",[2],inconclusive: -24.6% [at 35.3 µM]
same,Potency,[3],"inconclusive: 33.5 µM [cytotoxic, single point]"
same,Potency,[6],"inconclusive: 33.5 µM [cytotoxic, single point]"
same,Potency,[8],"inconclusive: 5.62 µM [activator, partial curve]"
same,Potency,[9],active: 4.47 µM
same,Potency,[10],"inconclusive: 38.9 µM [falling, single point]"
CCCN(CCC)c1c([N+](=O)[O-])cc(S(C)(=O)=O)cc1[N+](=O)[O-],Potency,[11],inactive
same,Potency,[4],"inconclusive: 77 µM [cytotoxic, single point]"
same,Potency,[12],inactive
same,Potency,[6],inconclusive: 61.1 µM [cytotoxic]
same,Potency,[13],"inconclusive: 35.6 µM [inhibitor, partial curve]"
same,Potency,[5],"inconclusive: 50.2 µM [inhibitor, partial curve]"
same,Potency,[14],"inconclusive: 89.4 µM [inhibitor, single point]"
O=C1c2ccccc2C(=O)C1C(=O)C(c1ccccc1)c1ccccc1,Potency,[1],inactive
same,"activity, negative = inhibition",[2],inconclusive: -15.1% [at 35.3 µM]
same,Potency,[4],"inconclusive: 33.5 µM [cytotoxic, single point]"
same,Potency,[6],"inconclusive: 33.5 µM [cytotoxic, partial curve, poor fit]"
same,Potency,[7],"inconclusive: 33.5 µM [activator, single point]"
same,Potency,[5],"inconclusive: 27.5 µM [inhibitor, partial curve]"

# Reference: PubChem BioAssay (Tox21)
